Source: the RNAGym collection of RNA variant scans (doi:10.1101/gad.245936.114)
Variants at the floor of the assay are shown more often than the library holds them.

B1: tRNA (parent)
chain: CUCUCGGUAGCCAAGUUGGUUUAAGGCGCAAGACUUUAAUUUAUCACUACGAAAUCUUGAGAUCGGGCGUUCGACUCGCCCCCGGGAGAUUUUUUCCUCGAGCAA

Variants of: B1
Assay: nonsense suppression (GFP-seq) (ratio to wild type); higher = more function; SUP4oc tRNA, yeast GFP reporter sort-seq
How it was run: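 Each variant's nonsense suppression (GFPSEQ) is a cell-share-weighted bin median GFP/RFP relative to the unmutated parent tRNA. Yeast with genome-integrated tRNA variants from a ~3% random-mutation library, a galactose-driven GFP ochre reporter and RFP were grown in raffinose/galactose medium with 80 mg/L adenine, then sorted into GFP/RFP bins for Illumina sequencing. Variants needed ≥100 reads and ≥30 cells.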

Nonsense suppression, 0.192:
U20C G28A

Nonsense suppression, ≤ 0.026:
U20C A24U U57G C68U
U20C A30G G69A C77A G86A
U20C A30U G78U
U20C A31C C79G G85C
U20C A33G C34U C81G
U20C A33U
U20C A33U G59U A89C
U20C A62G
U20C C27G
U20C C27G C29A G59U C75G
U20C C27U A33U G73A
U20C C29A
U20C C34U
U20C C34U C81G
U20C C34U G61C C75U C77G
U20C C56G G69U U70C
U20C C56U A89G
U20C C64A
U20C C68G G84A
U20C C75A C83A
U20C C77A A87C
U20C C83G
U20C G26C U35G C68G
U20C G26U A30U C34A U58G
U20C G59A C82U
U20C G61U G78C
U20C G73C G88U
U20C G84A
U20C G88U
U20C U21G C27A G65C C83A
U20C U22A C34G A87C
U20C U35G C56A U58G C79U
U20C U55G A87G
U20C U71A
U20C U76C G78C
U20G A23C
U20G A23C A33G
U20G A23C A62G
U20G A23C C29U U35G U71A
U20G A23G G25U C56U
U20G A23U A33G
U20G A23U A54U G61A
U20G A23U G26C A30U G32U G69C
U20G A23U G88U
U20G A24C U76C C81A
U20G A24G G61C G69U
U20G A24U C68U U70A
U20G A30G G65C U71C U76G A89C
U20G A31C A33G G67A C79G C82A
U20G A31C G88U
U20G A31U C68U
U20G A33U U55G G65C
U20G A62C A74G
U20G A62C C75A G88A
U20G A62U A87G
U20G A62U G69C
U20G A74G
U20G A87U
U20G C29G
U20G C29G U35G G67C
U20G C34A G88U
U20G C34G G88U
U20G C34U G84U

Nonsense suppression, 0.0559:
U20C U35C

Nonsense suppression, 0.0349:
U20C C77U

Nonsense suppression, 0.036:
U20C C80U

Nonsense suppression, 0.814:
U20C U22C

Nonsense suppression, 0.0493:
U20C U63G

Nonsense suppression, 0.228:
U20C U76C

Nonsense suppression, 0.063:
U20C C72G

Nonsense suppression, 0.18:
U20G A33G

Nonsense suppression, 0.212:
U20C G61A

Nonsense suppression, 1.12:
U20G A60U

Nonsense suppression, 0.0722:
U20C A31U

Nonsense suppression, 0.129:
U20C A30G

Nonsense suppression, 0.052:
U20C A54G

Nonsense suppression, 0.813:
U20C G28A U57G C77A

Nonsense suppression, 1.04:
U20G A54U

Nonsense suppression, 0.0437:
U20C A60G

Nonsense suppression, 0.213:
U20C A87G

Nonsense suppression, 0.989:
U20G

Nonsense suppression, 0.412:
U20C U22C A54U
